{"source": "PubChem BioAssay AID504333", "about": "(National Center for Advancing Translational Sciences (NCATS), 2011)", "note": "Hit rate of the full screen: of about 360,000 compounds, about 16,000 (4.4%) were called active. The inconclusive results got no clear call from the source; some entries with a clear call stand among them for comparison. Calls come from the whole dose curve; as a rule, active = well fitted inhibition curve with a large enough effect; inconclusive = small, poorly fitted or top-dose-only effect; inactive = no such curve, though single readings can be large or run the other way. A potency beside an inconclusive call is a rough fit, not a confirmed value. % is set by controls: 0 for no effect and ±100 for the full control effect; potency is the fitted concentration of half-maximal effect; tags give direction and shape of the fitted curve.", "data": [{"biological_target": "Bromodomain adjacent to zinc finger domain protein 2B (Homo sapiens) (UniProt Q9UIF8)", "sequence (Q9UIF8 whole entry, looked up, the tested form may be a part)": "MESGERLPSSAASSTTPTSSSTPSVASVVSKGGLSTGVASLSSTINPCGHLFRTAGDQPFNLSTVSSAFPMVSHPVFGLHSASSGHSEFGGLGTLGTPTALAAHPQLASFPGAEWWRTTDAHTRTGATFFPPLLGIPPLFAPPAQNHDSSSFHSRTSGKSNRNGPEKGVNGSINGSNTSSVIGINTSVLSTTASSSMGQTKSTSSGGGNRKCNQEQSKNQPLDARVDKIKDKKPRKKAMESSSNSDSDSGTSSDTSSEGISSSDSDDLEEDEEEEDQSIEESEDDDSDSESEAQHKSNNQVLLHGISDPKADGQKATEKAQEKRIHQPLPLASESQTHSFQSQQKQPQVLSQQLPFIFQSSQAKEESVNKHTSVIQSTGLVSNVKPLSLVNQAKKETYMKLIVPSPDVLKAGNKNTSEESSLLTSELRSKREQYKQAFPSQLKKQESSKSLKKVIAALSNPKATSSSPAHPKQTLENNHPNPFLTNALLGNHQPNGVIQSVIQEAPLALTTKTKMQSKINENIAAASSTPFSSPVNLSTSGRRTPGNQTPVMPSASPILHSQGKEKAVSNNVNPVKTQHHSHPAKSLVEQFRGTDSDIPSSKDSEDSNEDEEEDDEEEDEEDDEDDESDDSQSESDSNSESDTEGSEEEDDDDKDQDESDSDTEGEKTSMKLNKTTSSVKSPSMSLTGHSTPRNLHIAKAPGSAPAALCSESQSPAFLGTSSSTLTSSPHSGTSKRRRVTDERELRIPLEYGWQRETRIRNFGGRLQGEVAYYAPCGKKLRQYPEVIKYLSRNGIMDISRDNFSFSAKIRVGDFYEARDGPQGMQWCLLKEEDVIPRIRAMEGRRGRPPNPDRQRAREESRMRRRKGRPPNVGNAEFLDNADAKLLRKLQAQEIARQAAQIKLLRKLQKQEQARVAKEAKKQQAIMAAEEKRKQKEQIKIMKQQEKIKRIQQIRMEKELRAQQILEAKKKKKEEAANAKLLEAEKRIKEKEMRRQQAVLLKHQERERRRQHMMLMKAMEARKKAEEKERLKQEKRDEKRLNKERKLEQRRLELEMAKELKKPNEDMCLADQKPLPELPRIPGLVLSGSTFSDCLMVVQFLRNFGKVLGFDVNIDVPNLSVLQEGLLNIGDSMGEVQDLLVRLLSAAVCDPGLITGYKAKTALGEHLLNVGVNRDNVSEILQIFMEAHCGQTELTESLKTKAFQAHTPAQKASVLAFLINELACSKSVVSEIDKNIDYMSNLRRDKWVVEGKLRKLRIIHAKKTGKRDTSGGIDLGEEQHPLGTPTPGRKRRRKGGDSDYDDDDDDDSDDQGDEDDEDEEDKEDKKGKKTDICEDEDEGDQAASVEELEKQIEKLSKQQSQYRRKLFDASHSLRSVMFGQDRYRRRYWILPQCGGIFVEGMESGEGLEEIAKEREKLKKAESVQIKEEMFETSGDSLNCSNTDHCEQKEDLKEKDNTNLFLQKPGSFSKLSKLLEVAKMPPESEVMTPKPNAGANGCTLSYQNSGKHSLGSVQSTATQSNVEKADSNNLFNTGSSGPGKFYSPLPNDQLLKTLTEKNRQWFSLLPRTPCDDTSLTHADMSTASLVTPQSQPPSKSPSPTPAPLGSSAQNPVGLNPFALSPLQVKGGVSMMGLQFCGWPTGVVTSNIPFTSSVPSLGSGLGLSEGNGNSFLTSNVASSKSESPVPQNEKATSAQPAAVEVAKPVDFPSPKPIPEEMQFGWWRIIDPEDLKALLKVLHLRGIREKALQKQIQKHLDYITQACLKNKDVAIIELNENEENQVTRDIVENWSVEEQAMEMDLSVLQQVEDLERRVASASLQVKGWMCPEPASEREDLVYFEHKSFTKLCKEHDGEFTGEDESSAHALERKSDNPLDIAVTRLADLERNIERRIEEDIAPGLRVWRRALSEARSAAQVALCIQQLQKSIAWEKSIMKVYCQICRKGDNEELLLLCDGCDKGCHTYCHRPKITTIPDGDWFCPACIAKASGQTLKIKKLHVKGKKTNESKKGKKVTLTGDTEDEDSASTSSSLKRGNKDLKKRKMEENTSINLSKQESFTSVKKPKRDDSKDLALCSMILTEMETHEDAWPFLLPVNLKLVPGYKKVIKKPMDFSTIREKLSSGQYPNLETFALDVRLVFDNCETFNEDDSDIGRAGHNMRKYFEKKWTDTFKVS", "experiment": "qHTS Assay for Inhibitors of BAZ2B; note: nearly all actives have a fitted effect of over 60% in size", "settings": "AlphaScreen BAZ2B-H3K14Ac peptide displacement; activity change, negative = inhibition: at 114 µM (top of the series) unless noted", "summary_of_the_method": "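Complex of BAZ2B and biotin-H3K14Ac (50 nM apiece) forms over 30 min at RT, then faces library compounds up to 110 uM for another 30 min; AlphaScreen beads added, 20 min dark incubation, luminescence read.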", "values": [{"smiles": "Cc1ccc(CO/N=C\\Cc2snc(Sc3ncc(C(F)(F)F)cc3Cl)c2C#N)cc1", "Potency": "active: 35.5 µM"}, {"smiles": "COc1ccc(Nc2nnc(SCc3cc([N+](=O)[O-])cc4c3OCOC4)s2)cc1", "activity change, negative = inhibition": "inactive: -9.9%"}, {"smiles": "CS(=O)(=O)N1CCN(c2ccc([N+](=O)[O-])cc2F)CC1", "activity change, negative = inhibition": "inactive: -32.4%"}, {"smiles": "CN(C)CCC(=O)N1c2ccccc2Sc2ccc(C(F)(F)F)cc21", "activity change, negative = inhibition": "inactive: 5.74%"}, {"smiles": "CCOC(=O)c1cc2sc(C)cc2n1CC(=O)N1CCOCC1", "Potency": "inconclusive: 89.1 µM [inhibitor, single point]"}, {"smiles": "Cc1cc(Nc2ccc(Cl)cc2)nc(NCc2ccccc2)n1", "Potency": "inconclusive: 89.1 µM [inhibitor, single point]"}, {"smiles": "COCCn1c(C)cc(C(=O)COC(=O)c2cncc(Br)c2)c1C", "Potency": "inconclusive: 89.1 µM [inhibitor, single point]"}, {"smiles": "CN=c1scc(C)n1/N=C/c1ccc2c(c1)OCO2", "Potency": "active: 39.8 µM"}, {"smiles": "CC1Cc2ccccc2N1Cc1nc2cc(C(F)(F)F)ccc2c(=O)[nH]1", "note": "(configuration not stated)", "Potency": "inconclusive: 79.4 µM [inhibitor, single point]"}, {"smiles": "CCn1cc2nc(SCc3cccc(Cl)c3)n(Cc3ccc(C)cc3)c(=O)c2n1", "activity change, negative = inhibition": "inactive: 2.6%"}, {"smiles": "CCOc1ccc(C(=O)NC(=S)Nc2ccccc2N2CCC(C)CC2)cc1[N+](=O)[O-]", "Potency": "inconclusive: 31.6 µM [inhibitor, full curve]"}, {"smiles": "CCCS(=O)(=O)N1CCCC(C(=O)NCCN(CC)c2ccccc2)C1", "note": "(configuration not stated)", "Potency": "inconclusive: 70.8 µM [inhibitor, single point]"}, {"smiles": "O=C(NCC(c1ccco1)N1CCc2ccccc21)c1ccccc1", "note": "(configuration not stated)", "Potency": "inconclusive: 89.1 µM [inhibitor, single point]"}, {"smiles": "COc1ccccc1C(=O)NCCC(=O)N(Cc1ccco1)Cc1cccs1", "Potency": "inconclusive: 79.4 µM [inhibitor, single point]"}, {"smiles": "COc1ccc(CCNS(=O)(=O)c2cc(-c3cc(C)no3)ccc2C)cc1OC", "activity change, negative = inhibition": "inactive: -3.59%"}, {"smiles": "O=C(CCc1nnc2ccc(NCc3ccco3)nn12)Nc1cccc(F)c1", "Potency": "inconclusive: 70.8 µM [inhibitor, partial curve]"}, {"smiles": "COc1ccc(O)c(-c2cc(-c3cccs3)[nH]n2)c1", "Potency": "active: 70.8 µM"}, {"smiles": "CCc1ccc(CN2CCc3nc(N4CCN(CC)CC4)ncc3C2)cc1", "Potency": "active: 56.2 µM"}, {"smiles": "CCOC(=O)CSc1nc2c(c(=O)[nH]c(=O)n2C)n1Cc1ccccc1", "activity change, negative = inhibition": "inactive: -2.91%"}, {"smiles": "CCOC(=O)c1cc(NC(=O)c2ccccc2)c(=O)n2c1oc1ccccc12", "activity change, negative = inhibition": "inactive: 8.38%"}, {"smiles": "CCC(C(=O)OC)n1cnc2c(nnn2-c2ccc(F)cc2)c1=O", "note": "(configuration not stated)", "activity change, negative = inhibition": "inactive: -5.28%"}, {"smiles": "OCCCNc1nc(-c2ccccc2)nc2c1oc1ccccc12", "Potency": "inconclusive: 89.1 µM [inhibitor, single point]"}]}]}
